Data: the supplement of paper PMC11417369
The other results are listed elsewhere or left out.

These sequences were tested on PfSIP2 AP2 domain 1 (GST-tagged) (assay: gcPBM binding intensity (ln(normalized median fluorescence intensity)); higher = stronger DNA binding).
Summary of the method: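 An Agilent 4 × 180k array carrying primer-extended double-stranded 36-bp intergenic genomic probes and negative controls received GST-tagged P. falciparum DNA-binding domains expressed in E. coli, about 25 μg on average, for 1 h. The binding buffer contained 1× PBS, 1% milk, 0.2 mg/ml BSA, 0.5% salmon testes DNA and 0.03% Triton X-100. Binding intensity is the top Masliner-normalised natural-log median intensity across replicate spots of either probe orientation, read after Alexa488 anti-GST antibody staining and a 488 nm scan.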
With “AATTAAATGATTTATACATGCATATAAATATAAATA [TGCATGCA_site579]” the “gcPBM binding intensity (ln)” value was 7.03. With “AGTAGAAAAGGAACATGTACGAATTAAAAAAATAAT [XGTACX_site2347]” the “gcPBM binding intensity (ln)” value was 6.94. With “TCTGTAAATATGTATACACACATATATGATCAATAT [CACACA_site3234]” the “gcPBM binding intensity (ln)” value was 7.11. With “ACATATATATATATATATATATATATATTTATTTAT [CACACA_negctrl_site734]” the “gcPBM binding intensity (ln)” value was 8.04. For “TACACCATGATACATACACACAGACATATACACATT [CACACA_site6601]”, the “gcPBM binding intensity (ln)” value was 7.32. With “AAAAAACATTTGATCTGTACGCATAGACAATTATAT [XGTACX_site960]” the “gcPBM binding intensity (ln)” value was 7.07. With “AATAATATGTTATCTCTTACACATATAAAAAATAAA [XGTACX_negctrl_site370]” the “gcPBM binding intensity (ln)” value was 6.94. “TAAAAGAAAGCACATACACACACAAAAAAAAAAAAG [CACACA_site8159]” was tested, and the “gcPBM binding intensity (ln)” value was 6.94. In the case of “TTATACTGTACAAAAAGAATAGCAGTATAACAAAAA [CACACA_negctrl_site755]”, the “gcPBM binding intensity (ln)” value is reported as 7.03. For “ACAGGATTGGTTCAAACACACATATTATAGGACTAT [CACACA_site6455]”, the “gcPBM binding intensity (ln)” value was 6.94. “AATATGTTTTGTTAGGTTGGTGTTGGTAGAATGTTT [CACACA_negctrl_site1563]” was tested, and the “gcPBM binding intensity (ln)” value was 6.92. In the case of “AAAAAAAAATCATATTGTACGTAAAAAAAAAAAAAA [XGTACX_site476]”, the “gcPBM binding intensity (ln)” value is reported as 7.19. In the case of “CAATATATTTGATTTACACACTTACAATGTATTTAA [CACACA_site5632]”, the “gcPBM binding intensity (ln)” value is reported as 6.9. With “ATAATCCTTAGACACACACACACACGAATAAATAAA [CACACA_site6364]” the “gcPBM binding intensity (ln)” value was 7.21. “CGAAAAAATAAAAAAAAAATAAAATAAAATAAATAA [TGCATGCA_negctrl_site278]” was tested, and the “gcPBM binding intensity (ln)” value was 6.66. With “AATCTAGGTATTTATACACACTAAAATAATATACGA [CACACA_site4515]” the “gcPBM binding intensity (ln)” value was 6.91. “AAAAAAAAAAGAAACACACACATATAGATTTATAAC [CACACA_site6927]” was tested, and the “gcPBM binding intensity (ln)” value was 6.96. For “ATTTAAATAATATTCACACACAAAATTAAATTTTAA [CACACA_site6246]”, the “gcPBM binding intensity (ln)” value was 7.11. “AAAAAATTAACCGTAACACACACACCGATATATATA [CACACA_site9312]” was tested, and the “gcPBM binding intensity (ln)” value was 7.18. With “GCTCTAATTAATATTTGTACACACATATTTAACCTA [XGTACX_site6808]” the “gcPBM binding intensity (ln)” value was 7.24. With “TTTTTTTTTTTTTTTTGTACATAATTCCATATTTTT [XGTACX_site1789]” the “gcPBM binding intensity (ln)” value was 6.92. “TGATCTTTACACATATTATATATATATAAAAAAAAA [XGTACX_negctrl_site360]” was tested, and the “gcPBM binding intensity (ln)” value was 7.22. With “TTATAACATATAAACATGTTTCATCTTACGTATTTT [GTGCAC_negctrl_site694]” the “gcPBM binding intensity (ln)” value was 7.01. In the case of “TGTTATATCAATAATATATAATAATACCCTTCTTTT [CACACA_negctrl_site1682]”, the “gcPBM binding intensity (ln)” value is reported as 6.63. With “ATATTTAATTTGTATGGTACAGTACGATCTTTCTTT [XGTACX_site5533]” the “gcPBM binding intensity (ln)” value was 6.87. ATAAGAATATATAGAGTGCGTTGAAGAATTATAATA was tested, and the “gcPBM binding intensity (ln)” value was 7.56. With “CCCTCAACGAATTTGAGTACACATTTTAAATGATAT [XGTACX_site7763]” the “gcPBM binding intensity (ln)” value was 6.94. In the case of “ATCGCAAGATTAATATAAGGAGAAACGTTTATATAT [GTGCAC_negctrl_site267]”, the “gcPBM binding intensity (ln)” value is reported as 7.14. With “GGCAACAATGTAGATTGTACATATGAATTTTACAAT [XGTACX_site5655]” the “gcPBM binding intensity (ln)” value was 6.91. With “ATATTTTGTTTTATAGTGCACATGGGCATATATTAA [GTGCAC_site9435]” the “gcPBM binding intensity (ln)” value was 9.82. In the case of ATATATATTATCATTGTGCACTTATTTATATACCTT, the “gcPBM binding intensity (ln)” value is reported as 10.5. With “TTTACTTTTTTTTCTTGTACTCATACATACTATCAT [XGTACX_site4919]” the “gcPBM binding intensity (ln)” value was 7.19. In the case of “AAATTTCAATAATCTACACACATAAAAAAACAAAAG [CACACA_site1702]”, the “gcPBM binding intensity (ln)” value is reported as 7.36. In the case of “TTTAATAAATAAATAAATAAAATATATTAAAAACCA [CACACA_negctrl_site80]”, the “gcPBM binding intensity (ln)” value is reported as 6.87. “ATATTTTATTATTGTTGTACTTTTTTTTTTTGATTG [XGTACX_site4091]” was tested, and the “gcPBM binding intensity (ln)” value was 7.07. For “ATAATATGAAAACACACACACACACTAATAAAAAAA [CACACA_site8617]”, the “gcPBM binding intensity (ln)” value was 7.25. “ATATAAAAATTAAAATGTACATATCTTATTATAATA [XGTACX_site983]” was tested, and the “gcPBM binding intensity (ln)” value was 7.07. With “TAATAAAATAATATCACACATATTTATATATATTAT [CACACA_site5814]” the “gcPBM binding intensity (ln)” value was 6.73. In the case of “CAACATAAAAATTAAGCATGCAATAGACTTGTGTTG [TGCATGCA_site417]”, the “gcPBM binding intensity (ln)” value is reported as 6.65. In the case of “GTTTAAAAAAATTATCAACTTTAAAAAGGTAACATT [XGTACX_negctrl_site203]”, the “gcPBM binding intensity (ln)” value is reported as 6.78. With “GTAGTAAATAGGAGGATGCATATGGCACACATTATA [TGCATGCA_negctrl_site59]” the “gcPBM binding intensity (ln)” value was 7.91. In the case of “ATAAAAAGGAAACACACACACACACCCATATATATA [CACACA_site904]”, the “gcPBM binding intensity (ln)” value is reported as 7.3. “TGAATAATATACATACGTACATACATATATATAATA [XGTACX_site1302]” was tested, and the “gcPBM binding intensity (ln)” value was 7.05. In the case of “TTTTTTTTTTTTTTTTTTTTCATTCAATTATATTTA [CACACA_negctrl_site712]”, the “gcPBM binding intensity (ln)” value is reported as 6.96. With “TTATCACATAAACGATGTACGTACTAGGTTTTTTTT [XGTACX_site2147]” the “gcPBM binding intensity (ln)” value was 6.92.
